PubChem BioAssay AID1347165 (National Center for Advancing Translational Sciences (NCATS), 2019)
Where “and” joins values, the source holds several entries; their conditions need not be identical. Equal entries are not always repeated. About 5,700 (2.6%) of roughly 220,000 compounds were called active. Inconclusive means that the source gave no clear call. Such entries were picked first, then a sample of the others. Calls come from the whole dose curve; as a rule, active = well fitted inhibition curve with a large enough effect; inconclusive = small, poorly fitted or top-dose-only effect; inactive = no such curve, though single readings can be large or run the other way. Potencies beside an inconclusive call are fits to weak or partial responses and may not hold up.

What follows are compounds tested against Lysine-specific demethylase 5B (Homo sapiens) (UniProt Q9UGL1) (assay: Primary screen for KDM5B Histone Demethylases FDH-coupled qHTS). Conditions: FDH-coupled NADH fluorescence (FDH is formaldehyde dehydrogenase); activity change, negative = inhibition: at 57.7 µM (top of the series) unless noted.
Chain of UniProt Q9UGL1 (Q9UGL1 whole entry, looked up): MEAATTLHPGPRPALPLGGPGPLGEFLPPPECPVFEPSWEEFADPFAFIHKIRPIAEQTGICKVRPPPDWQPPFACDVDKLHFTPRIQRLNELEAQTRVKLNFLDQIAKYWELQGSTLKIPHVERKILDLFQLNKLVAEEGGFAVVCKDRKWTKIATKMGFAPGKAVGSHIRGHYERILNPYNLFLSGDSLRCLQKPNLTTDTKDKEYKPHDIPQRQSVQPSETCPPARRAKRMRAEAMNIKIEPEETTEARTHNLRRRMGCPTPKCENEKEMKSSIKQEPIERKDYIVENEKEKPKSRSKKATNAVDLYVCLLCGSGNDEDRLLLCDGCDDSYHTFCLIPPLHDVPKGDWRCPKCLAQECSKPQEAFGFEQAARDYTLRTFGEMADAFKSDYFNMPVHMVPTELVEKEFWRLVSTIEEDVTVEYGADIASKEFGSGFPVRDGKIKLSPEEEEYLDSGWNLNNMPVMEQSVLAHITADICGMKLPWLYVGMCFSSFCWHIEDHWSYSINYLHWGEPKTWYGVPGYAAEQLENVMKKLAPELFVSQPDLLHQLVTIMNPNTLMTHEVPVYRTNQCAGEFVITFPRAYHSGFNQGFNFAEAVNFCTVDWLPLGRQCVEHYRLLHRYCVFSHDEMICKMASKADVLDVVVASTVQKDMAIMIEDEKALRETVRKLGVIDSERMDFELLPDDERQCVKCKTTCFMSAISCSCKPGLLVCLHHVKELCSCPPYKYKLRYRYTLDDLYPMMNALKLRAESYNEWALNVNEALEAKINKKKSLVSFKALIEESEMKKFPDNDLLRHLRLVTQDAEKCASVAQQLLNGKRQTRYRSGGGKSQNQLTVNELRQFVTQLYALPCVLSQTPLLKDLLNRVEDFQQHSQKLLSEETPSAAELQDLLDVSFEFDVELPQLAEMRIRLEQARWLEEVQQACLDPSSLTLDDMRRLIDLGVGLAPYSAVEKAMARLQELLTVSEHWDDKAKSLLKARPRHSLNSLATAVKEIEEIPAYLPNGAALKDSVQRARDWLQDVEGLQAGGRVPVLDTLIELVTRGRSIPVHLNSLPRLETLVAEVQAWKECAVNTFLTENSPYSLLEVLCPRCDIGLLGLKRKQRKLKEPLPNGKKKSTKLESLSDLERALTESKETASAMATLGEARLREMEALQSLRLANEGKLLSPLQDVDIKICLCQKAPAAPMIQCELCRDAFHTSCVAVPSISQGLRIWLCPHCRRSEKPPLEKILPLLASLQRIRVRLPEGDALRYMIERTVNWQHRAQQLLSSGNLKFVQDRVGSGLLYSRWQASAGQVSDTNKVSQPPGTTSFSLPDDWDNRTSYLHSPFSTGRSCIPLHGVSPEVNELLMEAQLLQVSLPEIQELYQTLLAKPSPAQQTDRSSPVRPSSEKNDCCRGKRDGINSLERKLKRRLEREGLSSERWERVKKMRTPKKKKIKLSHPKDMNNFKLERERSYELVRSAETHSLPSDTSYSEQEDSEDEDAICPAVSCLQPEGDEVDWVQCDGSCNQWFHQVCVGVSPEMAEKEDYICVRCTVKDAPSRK
Method in brief: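 Measured: NADH fluorescence change, 30 min, RT. System: KDM5BΔAP 200 nM final, H3K4me3 peptide, α-KG, Fe(II), ascorbate, NAD⁺ plus FDH, pH 7.5 HEPES. Compounds: titrated, 10 min pre-incubation with enzyme.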
Note: nearly all actives have a fitted effect of over 70% in size.
Potency is the fitted concentration of half-maximal effect; tags give direction and shape of the fitted curve.
Throughout, for activity change, negative = inhibition: 0% is about no effect.

Q: For `COC(=O)C1=C(C)N=C2SC=C(CC(=O)NCC3CCCO3)N2C1c1ccc(C)cc1C` (centres undefined), which Potency is on record?
A: inconclusive: 25.1 µM [inhibitor, partial curve]

Q: Which Potency does the source give for `CCCc1ccc(/C=C/c2ccccc2)nc1` here?
A: inconclusive: 39.8 µM [inhibitor, single point]

Q: With `CCc1noc(-c2cccn3c(CNC(=O)CCc4ccccc4)nnc23)n1` as the compound, how does the Potency read?
A: inconclusive: 25.1 µM [inhibitor, partial curve, poor fit]

Q: `O=C(NCC1CC1)c1ccc(N2CC3CC(C2)[C@H]2CCCC(=O)N2C3)nc1` (some centres undefined) was tested. Which Potency did it give?
A: inconclusive: 28.2 µM [inhibitor, single point]

Q: `CN(C)CCCN1C(c2ccccc2)=CC(=C(C#N)C#N)C2=C1CCCC2` was tested. Which Potency did it give?
A: inconclusive: 20 µM [inhibitor, partial curve, poor fit]

Q: Which Potency does the source give for `CCCSc1oc(-c2cccs2)nc1S(=O)(=O)c1ccc(C)cc1` here?
A: inconclusive: 31.6 µM [inhibitor, partial curve, poor fit]

Q: How did the Potency turn out when `O=C(Nc1cccc(C(=O)OCc2cc(=O)n3c4c(sc3n2)CCCC4)c1)c1ccc(Cl)cc1` was run?
A: inconclusive: 35.5 µM [inhibitor, partial curve, poor fit]

Q: `CCOC(=O)c1ccc(NC(=O)c2ccc3c(c2)N(CC)C2CCCN2C3=O)cc1` (centres undefined) was tested. Which Potency did it give?
A: inconclusive: 22.4 µM [inhibitor, partial curve, poor fit]

Q: How did the Potency turn out when `COc1ccc(CN2CCN(Cc3ccc(OCc4ccncc4)cc3)CC2)cc1` was run?
A: inactive

Q: Which Potency does the source give for `CC(C)(C)c1cc(SCc2ccc(C#N)cc2)cc(C(C)(C)C)c1O` here?
A: inactive

Q: `Cc1ccc(Cn2c(C)c3cnn(CC(=O)O)c(=O)c3c2C)cc1` was tested. Which Potency did it give?
A: inconclusive: 25.1 µM [inhibitor, single point]

Q: How did the Potency turn out when `CC(C)(C)c1csc(-c2ccc(O)cc2)n1` was run?
A: inconclusive: 39.8 µM [inhibitor, single point]

Q: How did the Potency turn out when `CCCn1c(=O)n(CC(=O)Nc2c(C)cccc2C)c(=O)c2c1nc(C)n2CCOC` was run?
A: inactive

Q: `COc1cccc(C(=O)N/N=C(\C)c2ccc(NC(=O)Cc3ccccc3)cc2)c1OC` was tested. Which Potency did it give?
A: inconclusive: 39.8 µM [inhibitor, partial curve, poor fit]

Q: For `COc1ncccc1C(=O)N1CCc2c(nc(-c3cccnc3)[nH]c2=O)C1`, which Potency is on record?
A: inactive

Q: How did the Potency turn out when `CSc1ccc2cc(CN3CCCC(O)C3)c(-c3ccc(Cl)cc3)nc2c1` (centres undefined) was run?
A: inconclusive: 14.1 µM [inhibitor, partial curve, poor fit]

Q: For `COCCNC(=O)c1ccc(OC2CCN(C/C=C/c3ccc(F)cc3)CC2)c(Cl)c1`, which Potency is on record?
A: inconclusive: 11.2 µM [inhibitor, single point]

Q: For `Cc1ccc(-c2noc(-c3cccnc3NCc3ccco3)n2)cc1`, which Potency is on record?
A: inconclusive: 7.08 µM [inhibitor, partial curve, poor fit]

Q: For `CC(C)C(=O)N1CC(c2nnc(-c3ccncc3)o2)C2(CCOCC2)C1` (centres undefined), which Potency is on record?
A: inactive

Q: Which Potency does the source give for `CCc1nnc(SCc2cccc(Cl)c2)c2cc3sccc3n12` here?
A: inconclusive: 15.8 µM [inhibitor, partial curve, poor fit]

Q: `CCN1c2cc(C(=O)NCc3ccc(OC)cc3)ccc2C(=O)N2CCCCCC21` (centres undefined) was tested. Which Potency did it give?
A: inconclusive: 25.1 µM [inhibitor, partial curve, poor fit]

Q: Which Potency does the source give for `O=C(O)CCCNS(=O)(=O)c1ccc(Cl)c(Cl)c1` here?
A: inactive

Q: Which Potency does the source give for `CCOc1cccc(C(=O)Nc2ccc3oc(-c4ccncc4)nc3c2)c1` here?
A: inconclusive: 31.6 µM [inhibitor, partial curve, poor fit] and inconclusive: 1.78 µM [inhibitor, partial curve, poor fit]

Q: Which Potency does the source give for `O=C(CSc1nnc(-c2ccncc2)n1-c1ccc(Cl)cc1)c1c[nH]c(C(=O)N2CCCC2)c1` here?
A: inactive

Q: How did the Potency turn out when `Cc1cc(F)ccc1S(=O)(=O)Nc1nc2ccccc2nc1Cl` was run?
A: inconclusive: 14.1 µM [inhibitor, partial curve, poor fit]

Q: Which Potency does the source give for `COc1ccc(C(CNC(=O)CCc2nc(-c3ccncc3)no2)N2CCCCC2)cc1` (centres undefined) here?
A: inactive

Q: For `CNC(=O)c1ccc(/C=C/C(=O)C(C#N)c2ccccn2)cc1` (centres undefined), which Potency is on record?
A: inconclusive: 31.6 µM [inhibitor, partial curve, poor fit]

Q: `Cc1ccccc1C(=O)Nc1sc2c(c1C(=O)N1CCN(Cc3ccccc3)CC1)CCC2` was tested. Which Potency did it give?
A: inconclusive: 39.8 µM [inhibitor, single point]

Q: How did the Potency turn out when `O=C(NC1CCN(c2cc(-c3ccccc3)[nH]n2)C1)c1cccc(F)c1` (centres undefined) was run?
A: inconclusive: 5.62 µM [inhibitor, partial curve]

Q: Which Potency does the source give for `O=c1c(=O)n2c(nn1Cc1ccc(F)cc1)sc1ccccc12` here?
A: inconclusive: 28.2 µM [inhibitor, partial curve, poor fit]

Q: Which Potency does the source give for `Cc1noc(-c2cn(C3CCCN(C(=O)c4cccc(OC(F)(F)F)c4)C3)nn2)n1` (centres undefined) here?
A: inactive

Q: `CCCc1ccc(S(=O)(=O)N2CCN(C3(CC)CCN(C(=O)NC)C3)CC2)cc1` (centres undefined) was tested. Which Potency did it give?
A: inactive

Q: How did the Potency turn out when `CCCC(C)NC(=O)c1ccc(CNC(=O)NC(C)C)cc1` (centres undefined) was run?
A: inactive

Q: `CNc1c(NC(=O)C2CCC(C)CC2)c(=O)oc2ccccc12` (centres undefined) was tested. Which Potency did it give?
A: inconclusive: 39.8 µM [inhibitor, single point]

Q: `CC(C)(C)c1nc(C(=O)N2CCN(c3ncccn3)CC2)n2ccncc12` was tested. Which Potency did it give?
A: active: 79.4 µM

Q: With `Cc1ccccc1CN1CCc2nc(C(=O)NCCOc3ccccc3)oc2CC1` as the compound, how does the Potency read?
A: active: 31.6 µM

Q: `COc1ccc(-c2nc(CN3CCC(C(=O)NCc4ccc(C)cc4)CC3)c(C)o2)cc1OC` was tested. Which Potency did it give?
A: inconclusive: 28.2 µM [inhibitor, partial curve, poor fit]

Q: How did the Potency turn out when `O=C(NC1CCCC1)C1CCCN(C(=O)c2ccc3cc[nH]c3c2)C1` (centres undefined) was run?
A: inactive

Q: With `CSc1ccc(-c2noc(C3CCCN(S(=O)(=O)c4cccs4)C3)n2)cc1` (centres undefined) as the compound, how does the Potency read?
A: inactive

Q: `CC(C)(C)c1cc(N=Cc2ccccc2O)cc(C(C)(C)C)c1O` was tested. Which Potency did it give?
A: inconclusive: 25.1 µM [inhibitor, partial curve, poor fit]

Q: For `O=C(NCc1nnc2cc(-c3nc(C4CC4)no3)ccn12)c1ccncc1`, which Potency is on record?
A: active: 28.2 µM

Q: With `CCOc1ccc(C(=O)N(Cc2nc(-c3cccc(C)c3)no2)C(C)C)cc1` as the compound, how does the Potency read?
A: inconclusive: 1.41 µM [inhibitor, partial curve, poor fit]

Q: For `Cc1ccc(-c2cc(C(=O)N3CCN(Cc4ccncc4)CC3)c3ccccc3n2)o1`, which Potency is on record?
A: inconclusive: 22.4 µM [inhibitor, partial curve, poor fit]

Q: With `CC(C)N1C[C@H](O)C[C@H]1c1nnc2n1CCN(C(=O)c1ccc3ncccc3c1)CC2` as the compound, how does the Potency read?
A: inconclusive: 31.6 µM [inhibitor, partial curve, poor fit]

Q: Which Potency does the source give for `Cn1sc(=O)c2cc(S(=O)(=O)NC3CC3)ccc21` here?
A: inconclusive: 10 µM [inhibitor, partial curve, poor fit]

Q: Which Potency does the source give for `O=C(c1cc(-c2ccccc2F)cc2c1OCCN2Cc1cccnc1)N1CCCC1` here?
A: inconclusive: 8.91 µM [inhibitor, full curve]

Q: With `Cc1ccc(-c2nnc(SCC(=O)NC(C)(C)C)nc2-c2ccc(C)cc2)cc1` as the compound, how does the activity change, negative = inhibition read?
A: inconclusive: -30.2% [inhibitor]

Q: With `CCOCCN1CCN(C2c3ccccc3CSc3ccccc32)CC1` (centres undefined) as the compound, how does the Potency read?
A: inconclusive: 8.91 µM [inhibitor, full curve, poor fit]

Q: How did the Potency turn out when `Cc1ccc(Sc2ccc(N3CCCC(C(=O)Nc4ccc(F)cc4)C3)nn2)cc1` (centres undefined) was run?
A: inconclusive: 39.8 µM [inhibitor, partial curve, poor fit]

Q: Which Potency does the source give for `NC(=O)CCNC(=O)C1=C[C@@H](NC(=O)Nc2ccc(F)cc2F)[C@@H](O)[C@H](O)C1` here?
A: inconclusive: 22.4 µM [inhibitor, partial curve, poor fit]

Q: `CC(C)C(NC(=O)c1ccc(C(C)(C)C)cc1)C(=O)OCC(=O)N1CCCC1` (centres undefined) was tested. Which Potency did it give?
A: inactive

Q: For `COc1ccc(-c2cn3c(n2)sc2cc(C(=O)NCCCc4ccccc4)ccc23)cc1`, which Potency is on record?
A: inconclusive: 31.6 µM [inhibitor, partial curve, poor fit]

Q: How did the activity change, negative = inhibition turn out when `CCN(CC)C(=O)CSc1nc2cc3c(cc2c(=O)n1CCCC(=O)NCc1ccc2c(c1)OCO2)OCO3` was run?
A: inconclusive: -30.6% [inhibitor]

Q: How did the Potency turn out when `CCOc1ccccc1CN1CCC2(CCN(C(=O)c3ccc(OC)cc3)CC2)Oc2ccccc21` was run?
A: inconclusive: 14.1 µM [inhibitor, partial curve]

Q: How did the Potency turn out when `COc1cccc(NC(=O)Cn2c(C)ccc(NC(=O)Nc3ccc(C)cc3)c2=O)c1` was run?
A: active: 28.2 µM

Q: For `COc1cccc2c1cc1c(=O)n(CC(=O)N3CCN(c4ccc(F)cc4)CC3)nc(C)n12`, which Potency is on record?
A: inconclusive: 14.1 µM [inhibitor, partial curve, poor fit]

Q: `CC(NC(=O)c1cccc(C#N)c1)C(=O)N1CCN(c2ccccn2)CC1` (centres undefined) was tested. Which Potency did it give?
A: active: 25.1 µM

Q: Which Potency does the source give for `COc1ccc2nc(SCC(O)c3cccc(Br)c3)[nH]c2c1` (centres undefined) here?
A: inconclusive: 35.5 µM [inhibitor, single point]

Q: How did the Potency turn out when `CNC(=O)C1(N2CCC[C@H]2C(=O)N2CCOCC2)CCCCC1` was run?
A: inactive

Q: How did the Potency turn out when `O=C(CSCc1c(Cl)cccc1Cl)NCc1ccc2c(c1)OCO2` was run?
A: inconclusive: 39.8 µM [inhibitor, single point]

Q: `COc1ccc(-n2nnc3c(N4CCN(C(=O)Cc5cccs5)CC4)ncnc32)cc1` was tested. Which Potency did it give?
A: inactive

Q: How did the Potency turn out when `O=C(NCCC1CCCO1)c1cc(-c2ccccc2)nc2ccccc12` (centres undefined) was run?
A: inconclusive: 20 µM [inhibitor, partial curve, poor fit]

Q: For `CCC(=O)N1CCCN(S(C)(=O)=O)c2ccccc21`, which Potency is on record?
A: inactive

Q: For `O=C(NCc1ccccc1)c1nc2c(o1)CCN(Cc1ccc(F)cc1F)CC2`, which Potency is on record?
A: inconclusive: 31.6 µM [inhibitor, single point]
